Data on 68 compounds can be found in PubChem BioAssay AID1347073 (National Center for Advancing Translational Sciences (NCATS), 2019).

Hit rate of the full screen: of about 45,000 compounds, about 200 (0.44%) were called active. Inconclusive results (about 7%) are left out. Calls come from the whole dose curve; as a rule, active = well fitted activation curve with a large enough effect; inconclusive = small, poorly fitted or top-dose-only effect; inactive = no such curve, though single readings can be large or run the other way. This is one part of the list.

A short description of this assay: qHTS of TDP-43 Inhibitors: NCGC Sytravon Library Screen. Note: 0% is about no effect; nearly all actives have a fitted effect of over 55% in size. The note with it: yeast TDP-43 toxicity rescue, BacTiter-Glo growth, 24 h; series mostly up to 46.1 µM; growth rescue (activation): at the top concentration. In outline: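 TDP-43-expressing yeast, pregrown in raffinose, seeded at OD600 0.02 in galactose medium with compound for 24 hr at 30 deg C. Growth read by BacTiter-Glo luminescence, so rescue of toxicity appears as activation.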
A general note: Quantitative high-throughput screening tests each substance at several concentrations.
Take `O=C(COC(=O)c1ccc2c(c1Cl)C(=O)c1ccccc1C2=O)NC1CCCCC1`: the “growth rescue (activation)” value was inactive: 14.9%.

Consider `COc1ccc(/C=C/C2=CCN(Cc3ccc(OC)cc3)CC2)cc1`, for which the “growth rescue (activation)” value is inactive: -8.94%.

Consider `O=C(Cc1cn2ccsc2n1)Nc1cccc2cnccc12`, for which the “growth rescue (activation)” value was inactive: 14.2%.

Consider `COc1ccc(NC(=O)COC(=O)C2CCN(C(=O)c3ccc(Cl)cc3)CC2)c([N+](=O)[O-])c1`, for which the “growth rescue (activation)” value was inactive: 6.87%.

Regarding `CCOC(=O)c1ccc(NC(=O)c2cccc(S(=O)(=O)N3CCOCC3)c2)cc1`, the “growth rescue (activation)” value was inactive: 16.8%.

Regarding `Cc1cccc2cc(CN(Cc3ccco3)C(=O)c3ccncc3)c(=O)[nH]c12`, the “growth rescue (activation)” value is inactive: -8.66%.

Turning to `COc1ccccc1CC(NC(C)=O)C(=O)NC1CCN(C(=O)Nc2ccccc2F)CC1` (stereo not drawn), the “growth rescue (activation)” value is inactive: 8.95%.

Regarding `CC1(Cc2ccc(Cl)cc2)C(=O)Nc2ccc(S(=O)(=O)NC3CCCCC3)cc21` (stereo not drawn), the “growth rescue (activation)” value was inactive: 14.1%.

Consider `CSc1nc(SCC(=O)NCC2CCCO2)c2c3c(sc2n1)CN(C)CC3` (stereo not drawn), for which the “growth rescue (activation)” value is inactive: -12.2%.

For `Cc1cccc(C)c1OCc1cc(C(=O)N(C)Cc2nc3ccccc3[nH]2)no1`, the “growth rescue (activation)” value was inactive: -9.44%.

As for `CCOC(=O)c1sc(NC(=O)CSc2nccn2C)nc1C`, the “growth rescue (activation)” value is inactive: 7.06%.

As to `CC(c1ccco1)N(C(=O)c1ccc(Cl)c([N+](=O)[O-])c1)c1ccccn1` (stereo not drawn), the “growth rescue (activation)” value is inactive: 18.6%.

Turning to `CCN(CC)S(=O)(=O)c1cc(NC(=O)CN2C(=O)NC(C)(c3ccccc3)C2=O)ccc1C` (stereo not drawn), the “growth rescue (activation)” value was inactive: 10.3%.

For the compound `O=C(NC1CC2CCCC(C1)N2C(=S)Nc1ccc(Cl)cc1)C1CC1` (stereo not drawn), the “growth rescue (activation)” value was inactive: 3.75%.

Regarding `Cc1ccc(-c2noc(CN3CCC(C(N)=O)CC3)n2)cc1`, the “growth rescue (activation)” value was inactive: 28.7%.

For the compound `CCOC(=O)c1c(NC(=O)c2cc(OCC)c(OCC)c(OCC)c2)sc2c1CCCCC2`, the “growth rescue (activation)” value is inactive: 0.0143%.

Consider `Cc1ccc(CNC(=O)C2CCN(S(=O)(=O)c3cccc4nonc34)CC2)cc1`, for which the “growth rescue (activation)” value is inactive: -2.88%.

Regarding `Nn1c(SCC(=O)N2CCc3ccccc3C2)nnc1-c1cccs1`, the “growth rescue (activation)” value is inactive: 9.4%.

Regarding `Cn1cccc1-c1cc(C(=O)N2CCc3c([nH]c4ccccc34)C2c2ccccn2)[nH]n1` (stereo not drawn), the “growth rescue (activation)” value is inactive: 5.69%.

Take `O=C(NNC(=O)c1cccc(O)c1)Nc1ccc([N+](=O)[O-])cc1`: the “growth rescue (activation)” value is inactive: 17%.

As for `O=C(Cn1nnc(-c2ccccc2)c1COc1ccc2ccccc2c1)NCC1CC1`, the “growth rescue (activation)” value was inactive: 22.1%.

As to `Cc1occc1C(=O)N/N=C/C(Br)=C\c1ccccc1`, the “growth rescue (activation)” value was inactive: 21.4%.

With `COc1ccc(C2C(C#N)=C(N)OC3=C2C(=O)CC(C)(C)C3)cc1OC` (stereo not drawn), the “growth rescue (activation)” value was inactive: 1.27%.

On to `CCc1nc2ccc(C(=O)NCCCN(C)C)cn2c1N(C)CCCc1ccccc1`, for which the “growth rescue (activation)” value is inactive: -7.29%.

For the compound `O=C(O)CCSc1nnc(COc2cccc3cccnc23)n1-c1ccccc1`, the “growth rescue (activation)” value is inactive: 6.12%.

Consider `CC(C)c1ccc(/C=N/NC(=O)CC(=O)NCc2ccccc2)cc1`, for which the “growth rescue (activation)” value is inactive: 2.38%.

Take `Cc1ccc(S(=O)(=O)NCCc2cc3ccc(C)cc3[nH]c2=O)cc1`: the “growth rescue (activation)” value was inactive: -3.34%.

For the compound `C=CCNC(=S)NNC(=O)c1ccc(C)c(Cl)c1`, the “growth rescue (activation)” value is inactive: 8.41%.

As to `COc1ccc(/C=C(\NC(=O)c2ccc(OC)c(OC)c2)C(=O)N2CCN(C)CC2)cc1`, the “growth rescue (activation)” value was inactive: -2.28%.

Consider `COc1ccc2cc(C(=O)NCC(=O)O)sc(=O)c2c1OC`, for which the “growth rescue (activation)” value was inactive: 27.2%.

Regarding `CCC(=O)N/N=C/c1ccc(OS(=O)(=O)c2ccccc2)cc1`, the “growth rescue (activation)” value is inactive: 17.7%.

Consider `O=C(C1CC1)N1N=C(C2CCCCC2)CC1(O)C(F)(F)F` (stereo not drawn), for which the “growth rescue (activation)” value was inactive: 12.9%.

Regarding `Cc1ccc2[nH]c(=O)c(CN3CCCCC3)c(-c3ccccc3)c2c1`, the “growth rescue (activation)” value is inactive: -3.23%.

Turning to `Cc1cc(C(=O)NCc2ccccc2Cl)c2ccccc2n1`, the “growth rescue (activation)” value is inactive: 16%.

In the case of `Fc1ccc(CNc2ncccn2)cc1`, the “growth rescue (activation)” value was inactive: 24.5%.

Take `CC(=O)Nc1ccc(C(=O)NNC(=O)c2cccs2)cc1`: the “growth rescue (activation)” value was inactive: 6.63%.

Regarding `COC(=O)C(NC(C)=O)(Nc1ccc(C)cn1)C(F)(F)F` (stereo not drawn), the “growth rescue (activation)” value was inactive: 0.274%.

On to `CCCCN(CC)Cc1ccc(CNC(=S)Nc2ccccc2F)o1`, for which the “growth rescue (activation)” value was inactive: -15.1%.

For `CC(C(=O)N1CC2(C)CC1CC(C)(C)C2)N1C(=O)c2ccccc2C1=O` (stereo not drawn), the “growth rescue (activation)” value was inactive: 0.828%.

For `OCCC1CN(Cc2cn[nH]c2C2CCCCC2)CCN1C1CCCC1` (stereo not drawn), the “growth rescue (activation)” value is inactive: 14.8%.

Turning to `COc1ccc(/C=N/NC(=O)c2ccc(COc3cccc4cccnc34)cc2)cc1O`, the “growth rescue (activation)” value is inactive: -3.95%.

As to `Cc1noc(C(=O)Nc2ccc(F)c(Cl)c2)c1Cl`, the “growth rescue (activation)” value is inactive: -2.32%.

Take `O=C(CN1CCN(Cc2ccccc2Cl)CC1)N/N=C/C=C/c1ccco1`: the “growth rescue (activation)” value is inactive: 2.66%.

`COc1ccc(Nc2ncnc3sccc23)c(OC)c1`: the “growth rescue (activation)” value is inactive: -16.4%.

On to `Cc1ccc(-n2c(-c3cnccn3)n[nH]c2=S)c(Br)c1`, for which the “growth rescue (activation)” value is inactive: 2.47%.

As for `COc1ccc2c3c(cccc13)OC2=O`, the “growth rescue (activation)” value was inactive: 22%.

As for `O=C(O)CCCCCN1C(=O)C(O)=C(C(=O)/C=C/c2ccccc2)C1c1ccc2c(c1)OCO2` (stereo not drawn), the “growth rescue (activation)” value is inactive: -13.5%.

As for `COC(=O)c1ccc2c(=O)[nH]c(CCl)nc2c1`, the “growth rescue (activation)” value is inactive: -12.9%.

As to `COc1cc(NC(=O)c2cccs2)c(C(=O)OCC(=O)c2cc(C)n(-c3ccccc3)c2C)cc1OC`, the “growth rescue (activation)” value was inactive: 6.12%.

Regarding `COc1cccc(OCc2cc(/C=N/n3cncn3)ccc2OC)c1`, the “growth rescue (activation)” value is inactive: 10%.

In the case of `COc1ccc(CCN(C)C(=O)Cn2c(=O)oc3ccccc32)cc1OC`, the “growth rescue (activation)” value is inactive: -9.43%.

As for `CCOc1cc(NC(=S)NCCCN(C)C)c(OCC)cc1NC(=O)c1cccs1`, the “growth rescue (activation)” value is inactive: 14.8%.

Turning to `O=C(NCc1ccccc1Cl)c1ccc(CSc2nc3ccncc3[nH]2)cc1`, the “growth rescue (activation)” value was inactive: -5.27%.

`O=C(CCl)NC1(C(F)(F)F)C(=O)Nc2c1c(=O)[nH]c(=O)n2-c1ccccc1` (stereo not drawn): the “growth rescue (activation)” value was inactive: -4.84%.

Take `O=C(NCCN1C(=O)S/C(=C\c2ccccc2)C1=O)c1cc(S(=O)(=O)N2CCOCC2)c(Cl)cc1Cl`: the “growth rescue (activation)” value is inactive: 5.8%.

Consider `O=C(CSc1nnnn1C1CCCC1)N1CCCCC1`, for which the “growth rescue (activation)” value was inactive: 12.1%.

As to `O=C(CC1SC(=Nc2ccccc2)N(CCO)C1=O)Nc1ccccc1` (stereo not drawn), the “growth rescue (activation)” value was inactive: -5.52%.

Consider `CCN(CC)S(=O)(=O)c1ccc(Cl)c(NC(=O)COc2ccc(OC)cc2[N+](=O)[O-])c1`, for which the “growth rescue (activation)” value is inactive: 5.87%.

With `COc1ccc(CSc2nnc(C)s2)cc1F`, the “growth rescue (activation)” value is inactive: 13.2%.

As for `Fc1ccccc1NC(=S)NCc1ccc2c(c1)OCO2`, the “growth rescue (activation)” value was inactive: 11.1%.

Regarding `Cc1ccnc(NC(=O)CS(=O)(=O)c2ccccc2)c1`, the “growth rescue (activation)” value is inactive: 1.85%.

For `CN1CCN(C(=O)c2cc(Cl)cc(Cl)c2)CC1`, the “growth rescue (activation)” value is inactive: 4.89%.

For the compound `CC1(C)CC(c2nc(-c3ccccc3)cs2)CCS1` (stereo not drawn), the “growth rescue (activation)” value was inactive: -13.1%.

For `Nc1cc(S(=O)(=O)N2CCOCC2)ccc1N1CCCCC1`, the “growth rescue (activation)” value was inactive: 19.7%.

With `Cc1c(Cl)c([N+](=O)[O-])nn1CC(=O)N1CCCc2ccccc21`, the “growth rescue (activation)” value is inactive: -9.86%.

As to `Cc1nc(SCC(=O)N2CCOCC2)c2c(=O)n(C)c(=O)n(CC(C)C)c2n1`, the “growth rescue (activation)” value was inactive: 8.94%.

As for `O=C(CN(Cc1ccc(F)cc1)C(=O)CCC(=O)Nc1ccccn1)NCCc1ccccc1`, the “growth rescue (activation)” value is inactive: 2.28%.

As for `O=C(O)CC(SCC(=O)Nc1ccc(S(=O)(=O)N2CCCC2)cc1)C(=O)O` (stereo not drawn), the “growth rescue (activation)” value was inactive: -8.49%.
